# Reference: the supplement of paper PMC10338343
# ± gives the standard deviation. Only a part is listed here, and it is no random draw.
# Test system: MIWI (PIWIL1) piRISC loaded with piRNA #1 (30 nt)
# Assay: pre-steady-state target cleavage rate (min^-1); MIWI and MILI are mouse PIWI proteins and EfPiwi is from a freshwater sponge; tags in brackets are library labels; higher = faster piRNA-guided slicing of the target
# Conditions: guide: piRNA #1 5'p-UGAGGUAGUAGGUUGUAUAGUAUCCAGAGG; auxiliary factor: 500 nM mouse GTSF1
# Method in brief: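 Using HEPES–potassium acetate buffer at 33 °C, 1 nM active affinity-purified piRISC with a single synthetic guide was mixed with 0.1 nM transcribed, DNA-blocked target RNA library for 0–8 or 0–960 min, with or without 500 nM GTSF1 partner protein. Uncleaved targets were sequenced and normalised to depth and to weakly complementary targets, and three trials were pooled with k3 capped at 0.0001 min^-1. A burst-and-steady-state fit gave the pre-steady-state cleavage rate.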
row,Sequence,pre-steady-state target cleavage rate
1,GGACUGGAUACUAAUCAACCUACUACCUCA,1.53 ± 0.15
2,CCUCUCGAUACUAUACAACCUUCUACCUCA,0.676 ± 0.035
3,GGAGACCUAUGUAUACAACCUACUACUCA,0.00349 ± 0.0019
4,GGAGACCUAUCUAUACAACCUAGUACCUCA,0.237 ± 0.034
5,GGAGACCUUACUAUACAACCUACUACCUACA,1.2 ± 0.073
6,GCUCUGGAUACUAAACAACCAACUACCUCA,0.171 ± 0.022
7,GGAGACCUAUGUAUACAACCUACUACCUCG [g2:g19:cont:t1G],0.224 ± 0.026
8,GGUCUGGAUACUAUUACAACCUACUACCUCA,1.74 ± 0.12
9,GGAGACCUAUCUAUAGUACCUACUACCUCA,0.0069 ± 0.0022
10,GGAGUGGAUACUAUUACAACCUACUACCUCA,1.41 ± 0.11
11,GGAGACCAUACUAUACAUCCAACUACCUCA,0.0679 ± 0.0095
12,GCUCUGGAUACAAUACAACGUACUACCUCA,0.941 ± 0.057
13,GGUCUGGAUAGAUUACAACCUACUACCUCA,0.839 ± 0.1
14,GGAGACGAUACUGAUACAACCUACUACCUCA,1.47 ± 0.095
15,GGAGACCUAUCUAUACAACCUACUUACCUCA,0.898 ± 0.097
16,GGAGACCUAUGAUAACAACCUACUAGCACA,< 0.0001
